# Out of some 52,000 compounds screened, about 1,700 (3.3%) were called active. Cut-off read from the data, not from the text of the source: active = survival mostly below about 52% (no sharp cut-off); inactive = mostly above about 56%. The list shows a part of the results.
# System: Wild type
# Test: growth inhibition of S. aureus wild type versus tarO mutant, primary screen, teichoic acid synthesis inhibitors, RN4220, OD600 (AID 463173)
# Conditions: S. aureus RN4220 wild type/DeltatarO growth, OD600, 18 h, stronger effect = lower value, screened at 18.75 µg/mL (by protocol)
row,SMILES,survival
1,COc1ccc(CNC(=O)c2cc3c(=O)oc4ccc(C)cc4c3s2)c(OC)c1,inactive: 85%
2,O=C(O)C1CCN(C(=O)c2cccs2)CC1,inactive: 109%
3,Fc1ccc(-c2noc3ncnc(NC4CCCCC4)c23)cc1,inactive: 76%
4,Cc1cc(Nc2cccc(Cl)c2)nc2ccc(NC(=O)Cc3cccc(C(F)(F)F)c3)cc12,inactive: 75%
5,Cc1cccc(N2CCN(C(=O)CCCCn3c(=O)[nH]c4ccsc4c3=O)CC2)c1C,inactive: 50%
6,COc1ccc(Cn2c(=O)c3oc4ccccc4c3n(Cc3ccc(F)cc3)c2=O)cc1,inactive: 91%
7,COc1cc(C2CC(=O)Nc3cc4c(cc32)OCCO4)cc(Br)c1OC (stereo unspecified),inactive: 93%
8,CCN(CC)S(=O)(=O)c1ccc2oc(C(=O)N(C)Cc3ccccc3)c(C)c2c1,inactive: 54%
9,CCCCOc1cccc(C(=O)N(Cc2sccc2C)C2CCS(=O)(=O)C2)c1 (stereo unspecified),inactive: 90%
10,CCCC(=O)N1CCCC(c2nc3c(nnn3Cc3ccccc3)c(=O)[nH]2)C1 (stereo unspecified),inactive: 106%
11,O=C(NCCCc1ccccc1)C1CCN(C(=O)N2CCOc3ccc(Cl)cc32)CC1,inactive: 85%
12,CCOc1ccccc1NC(=O)CCn1nc(C)c(S(=O)(=O)N2CCCCC2)c1C,inactive: 76%
13,COc1ccc(C2C=C(c3ccccc3)Nc3nc(NC(=O)/C=C/c4ccccc4)nn32)cc1 (stereo unspecified),inactive: 74%
14,Cn1ccc2c(OCC(=O)Nc3cc(C(F)(F)F)ccc3Cl)cccc2c1=O,inactive: 75%
15,CCN(CC)S(=O)(=O)c1ccc2c(c1)c(=O)c(C(=O)N1CCN(c3ccc(F)cc3)CC1)cn2C,inactive: 132%
16,COC(=O)CCN(c1ccccc1)S(=O)(=O)c1cc(-c2cc(C)no2)ccc1OC,inactive: 90%
17,CCN1CCSc2ccc(C(=O)NCc3ccc(OC)cc3)cc21,inactive: 87%
18,CC(C(=O)N1CCCCC1)N(c1ccccc1)S(C)(=O)=O (stereo unspecified),inactive: 99%
19,O=C(Nc1ccccc1)c1cc2sccc2n1Cc1ccccc1,inactive: 132%

row,SMILES,survival
1,O=C(Cn1ncc2c3ccccc3n(Cc3cccc(Cl)c3)c2c1=O)NC1CCCCCC1,inactive: 125%
2,CC(=O)N1CCc2cc(S(=O)(=O)CCC(=O)NCc3ccc(Cl)cc3)ccc21,inactive: 68%
3,CCc1ccc(NC(=O)CSC2=Nc3ccccc3C3=NC(CC(=O)NCc4ccccc4)C(=O)N23)cc1 (stereo unspecified),inactive: 91%
4,CS(=O)(=O)N1CCC(N2CCN(Cc3ccccc3)C(=O)C2=O)CC1,inactive: 77%
5,COC(=O)c1sc(N)c(C#N)c1C,inactive: 93%
6,CCOc1ccc2oc(=O)cc(CN3CCN(C(=O)c4ccc(F)cc4)CC3)c2c1,inactive: 56%
7,CCNC(=O)CC1C(=O)N(c2cccc(OC)c2)C(=O)N1Cc1ccc(OC)c(OC)c1 (stereo unspecified),inactive: 81%
8,CCc1ccc(-c2nc(CS(=O)CC(=O)NCCc3ccc(Cl)cc3)c(C)o2)cc1 (stereo unspecified),inactive: 63%
9,O=C1CCSC2(C(=O)N(Cc3ccc(F)cc3)c3ccccc32)N1c1ccc(F)c(F)c1 (stereo unspecified),inactive: 68%
10,Cc1nc2ncnn2c(C)c1CCC(=O)NCc1ccccc1Cl,inactive: 69%
11,O=S(=O)(Nc1cccc(-c2ccc(N3CCCCCC3)nn2)c1)c1cccc(F)c1,inactive: 56%
12,CCOc1ccccc1N(CC(=O)N1CCc2ccccc2C1)S(=O)(=O)c1ccccc1,inactive: 57%
13,N#CCn1cc(C(=O)C(F)(F)F)c2ccccc21,inactive: 116%
14,Cc1c(C(=O)Nc2cccc(Cl)c2)oc2ccc(S(=O)(=O)N(C)C3CCCCC3)cc12,inactive: 74%
15,COC(=O)CCc1csc(N)n1,inactive: 98%
16,COc1cccc(NC(=O)Cn2c(=O)n(-c3ccc(C)cc3)c(=O)c3ccc(C(=O)NCc4ccco4)cc32)c1,inactive: 77%
17,CCC(Sc1nncn2c1cc1oc(C)cc12)C(=O)Nc1ccc(F)cc1 (stereo unspecified),inactive: 73%
18,CCc1cccc(NC(=O)C(c2ccccc2)N2Cc3ccccc3C2=O)c1 (stereo unspecified),inactive: 72%
19,CCOCc1ccccc1Nc1ncnc2onc(-c3ccc(Cl)cc3)c12,inactive: 125%

row,SMILES,survival
1,COc1cc(C)c(C)cc1S(=O)(=O)Nc1cccc(-c2ccc(N3CCOCC3)nn2)c1,inactive: 85%
2,COc1ccc(CCNC(=O)C(=O)NCC(c2ccco2)S(=O)(=O)c2ccc(F)cc2)cc1 (stereo unspecified),inactive: 72%
3,COCCn1c(=N)c(C(=O)NC(C)c2ccccc2)cc2c(=O)n3cc(C)ccc3nc21 (stereo unspecified),inactive: 79%
4,CC(C)(C)OC(=O)N1CCC(c2c(C(=O)NCCN3CCC(Cc4ccccc4)CC3)cnn2-c2ccc(F)cc2)CC1,inactive: 60%
5,CCC(C)NC(=O)CCc1c(C)nc2nc(-c3cc(OC)cc(OC)c3)nn2c1C (stereo unspecified),inactive: 80%
6,Cc1ccc(NC(=O)[C@@H](c2ccccc2)N2Cc3ccccc3C2=O)cc1,inactive: 59%
7,Cc1cccc(N2CCN(S(=O)(=O)c3cc(C(=O)Nc4ccccc4Cl)ccc3F)CC2)c1C,inactive: 84%
8,CCc1ccccc1NC(=O)CSc1nnc2ccc3ccccc3n12,inactive: 80%
9,COC(=O)c1cc2oc3ccccc3c2n1Cc1nc(-c2ccccc2C)oc1C,inactive: 121%
10,O=C(CSCc1cc(=O)c2cc(F)ccc2[nH]1)Nc1ccccc1Cl,inactive: 70%
11,COc1ccc(OC)c(CCNc2nc3ccccc3c3nc(-c4cccnc4)nn23)c1,inactive: 127%
12,Brc1ccc(-n2nc(-c3ccccc3)c3cnc4cc5c(cc4c32)OCO5)cc1,inactive: 112%
13,CCC(C)(C)n1nnnc1C(c1ccccc1)N1CCc2ccccc2C1 (stereo unspecified),inactive: 107%
14,Cc1ccc2[nH]c(CSc3nnc(NC(=O)c4ccc(Cl)cc4)s3)cc(=O)c2c1,inactive: 71%
15,CCCN(CCC)C(=O)c1c2c(nc3ccccc13)C(=O)N(C1CCCCC1)C2,inactive: 75%
16,Cc1cc(S(=O)(=O)C(CNC(=O)COc2ccc(Cl)cc2)c2cccs2)ccc1F (stereo unspecified),inactive: 120%
17,Cc1ccc(CCNC(=O)C2CCN(Cc3nc(-c4ccccc4C)oc3C)CC2)cc1,inactive: 122%
18,CCc1ccc(OCC2c3cc(OC)c(OC)cc3CCN2C(=O)COc2ccccc2)cc1 (stereo unspecified),inactive: 77%

# — PubChem BioAssay AID463173 (ICCB-Longwood Screening Facility, Harvard Medical School, 2010)
